Data from the supplement of paper PMC3334620.
Over roughly 33,000 sequences, “E-score (-0.5 to 0.5)” has its median near -0.041; the highest 2% begin near 0.37. This is one part of the list.

target: T1, Ecm22 (UniProt Q05958); experiment: PBM E-score (8-mer binding enrichment) (E-score (-0.5 to 0.5)); higher = stronger / more preferred TF binding; most listed sequences are background and not binding sites; details: protein concentration: 200 nM; construct: GST-full length
T1 sequence: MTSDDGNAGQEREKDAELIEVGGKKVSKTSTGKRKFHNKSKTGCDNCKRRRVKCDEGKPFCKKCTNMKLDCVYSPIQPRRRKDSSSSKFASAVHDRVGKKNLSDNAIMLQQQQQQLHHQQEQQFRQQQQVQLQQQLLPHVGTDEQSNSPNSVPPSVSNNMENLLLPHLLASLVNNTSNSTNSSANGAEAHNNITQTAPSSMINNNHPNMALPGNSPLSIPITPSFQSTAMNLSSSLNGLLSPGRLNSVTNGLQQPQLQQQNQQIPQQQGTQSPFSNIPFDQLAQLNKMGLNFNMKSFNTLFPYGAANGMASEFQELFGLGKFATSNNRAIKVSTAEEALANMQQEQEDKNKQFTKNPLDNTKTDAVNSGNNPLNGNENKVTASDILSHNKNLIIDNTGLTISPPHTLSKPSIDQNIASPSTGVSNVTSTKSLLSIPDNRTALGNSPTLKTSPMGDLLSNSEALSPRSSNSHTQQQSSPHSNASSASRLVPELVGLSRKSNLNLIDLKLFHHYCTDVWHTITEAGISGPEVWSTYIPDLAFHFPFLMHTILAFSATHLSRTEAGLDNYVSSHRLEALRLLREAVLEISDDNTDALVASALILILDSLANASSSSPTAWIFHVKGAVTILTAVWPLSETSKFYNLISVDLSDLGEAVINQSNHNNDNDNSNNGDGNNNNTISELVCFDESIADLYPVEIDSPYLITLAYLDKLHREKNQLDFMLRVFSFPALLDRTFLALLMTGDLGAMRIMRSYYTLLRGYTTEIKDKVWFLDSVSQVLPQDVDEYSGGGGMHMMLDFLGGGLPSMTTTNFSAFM
How it was run: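 For each ungapped eight-base word taken together with its reverse complement, the Universal PBM Analysis Suite assigned an E-score. Binding data came from GST-tagged yeast transcription factors, applied at about 100-200 nM, on universal all-10-mer Agilent arrays made double-stranded by primer extension. Fluorescent anti-GST marked bound protein, and scans were normalised with masliner.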

Sequence	PBM E-score
GCTGTAAC	0.0478
AAAGATAC	0.109
ACCGCCTC	0.0157
ACGGGACA	0.182
CAGATTTA	0.156
AAGGCAAC	-0.0255
CTATTCAG	-0.0277
ACAGATCT	-0.159
AAGGTCGC	0.0632
ACACTTGG	-0.212
GGTGCCAA	-0.179
ACTTCGAG	-0.105
ATCGGCTC	0.104
AAACATCA	-0.118
AGGTAGGG	-0.125
AGACGTTA	-0.139
GACCTTGA	-0.228
AGAATTCC	-0.0782
TGTCAGAA	-0.177
GCTACAAA	-0.0555
ATGCAACC	0.027
ACGTTGAA	0.0823
AAGGATGA	-0.113
CATGCACG	-0.0495
CACTATTC	-0.0887

Sequence	PBM E-score
CTGGACCA	-0.139
AAGAGATG	-0.171
AAGTTCGG	0.0304
GGATTAAC	0.0195
CCCGCCTA	-0.0427
CGTCTAGC	-0.0148
AATAAGAC	-0.171
AAGCCCGA	-0.0754
CGAGAATC	0.227
ATCGACCA	-0.0651
ACACAATC	-0.0435
AGGACTCG	0.0228
GACAAATA	0.0672
CAGGGATC	-0.2
ACCCGCAC	-0.063
TGATTGCA	-0.0481
AAATCCCG	0.0266
AGGATTGC	-0.141
CAGACGGG	-0.169
ATGATATC	0.127
CGCCGCTC	0.0325
ATGAGCCA	-0.173
CCCCACGC	-0.344
GCTATGAC	-0.0387
AGCCAATC	-0.0209

Sequence	PBM E-score
ACGTCAGC	-0.0216
CCGTCACG	-0.141
GAGTGGAA	-0.03
AGGGCCAA	-0.381
CGTAGTAA	0.195
AATCCAGG	0.0632
ACAGACGA	0.161
AATGCGAT	0.112
TCCGAGCA	0.236
ACCTAGCA	-0.0648
CCAAAGGC	-0.157
GAAGGCAA	-0.00459
AAGATATG	0.029
ACGGTTTC	0.23
ACGTCTCA	-0.0873
GCACATAC	-0.208
CACGTGAG	-0.229
GCCCGATA	-0.166
CCGCAAAG	0.0479
CTAGCTCA	-0.0782
CATGGATC	-0.227
AGTATGCC	-0.134
AGGAGCAA	-0.154
CTGGTCGA	-0.161
AATTCGAA	-0.0672

Sequence	PBM E-score
GATAGTTA	0.227
TAAAACCA	-0.00311
GCATGCAA	0.0969
ATCTGCGC	-0.135
ACGCGCTA	0.216
CAGGCAAG	-0.254
CGCCGCCC	-0.0997
CTGCAGCA	-0.0773
CTTCAGTA	-0.0196
AAGGTAGG	-0.18
GAGGAAAA	-0.0267
CGATCATA	0.155
TGGTGAAA	-0.046
CAGGTCAA	-0.195
GGACGCCC	-0.126
AACGGTCT	0.0502
AAACACTG	-0.0685
CCAGGTCG	-0.0864
GCAAGACA	-0.113
GTTAATAA	0.159
CTGTCGAC	0.0179
CCACGGCG	0.0206
TGGCCCAA	-0.0847
AGTGATTG	-0.129
ACGAGTGG	0.331

Sequence	PBM E-score
CCGGTGGA	0.0344
ACGTCGTA	0.464
ATTCTAGA	-0.0426
AGCCCATC	-0.0704
ACGACACT	0.278
ACAGTCGC	0.122
CCACTCTC	-0.0812
AGGCTCGA	-0.0988
GGGCAGCA	-0.265
CCGACCAA	0.105
AAATGGTC	0.0301
TACCGACA	0.198
ATCTCAGC	-0.176
CGCATTCC	-0.285
AAAGCCAT	0.0454
CACAGGGC	-0.186
CACGGCAA	0.0928
AACATCAG	-0.198
TACGGAAA	0.305
CGTGCCCA	0.0434
ATCGCAGA	-0.00881
ACTAAGCG	0.248
GTGAGTGA	-0.118
ACCCTAAC	-0.0421
GCCAAAGC	-0.31

Sequence	PBM E-score
AATGATAG	0.17
ATCGTTTG	0.414
GACTACAC	0.0822
CTAACTTA	-0.0664
GCACCTGC	-0.163
GAACCAGC	-0.136
ATAGTGTG	-0.0602
CACGGATC	0.0362
ACCTAAAT	0.112
GGGTCTAC	-0.0108
GGTCAGGA	-0.165
CTTCCTAC	-0.303
GGATAGCA	0.0911
CTGTTAGA	-0.127
GCGGAGCA	0.0503
AAGCACTC	-0.108
ACATCTTA	-0.148
AATTTCAC	-0.0785
ACTCGTCT	0.172
CGCATAGC	0.208
ACACTGTC	-0.0828
ACGAAGAT	0.356
TCGGGGAA	0.0444
CCCACGAC	-0.242
CGGGTTAG	0.0278

Sequence	PBM E-score
CCAACTCC	0.012
AATTGAGC	-0.113
CGAGGGAA	0.231
CTATTGGC	-0.0898
GGGAACAA	0.143
GAGTGAGC	-0.1
AAGGTCAG	-0.208
AGTCCGCG	-0.115
ACTGTACT	-0.12
ATCATGTC	0.0643
ATAATAGG	-0.0448
CTCTATTA	-0.0358
CAGAGGGG	-0.249
AAGGCTAG	-0.0859
CGTTGGCC	-0.151
ACCCTGTA	-0.145
CTATTTTA	-0.0646
ATCGTTAA	0.403
CCAACAAG	-0.194
GTAATGTA	-0.14
CCTGGTAC	0.11
AGTGGTCC	-0.104
